Assay results as given in PubChem BioAssay AID602332 (National Center for Advancing Translational Sciences (NCATS), 2012).
“And” between values parts separate entries of the source, which are not always exact repeats. Identical values can stand only once. Among all 420,000 compounds or so, about 75 (0.02%) were called active. Calls follow the shape of the dose curve; as a rule, active = well fitted activation curve with a large enough effect; inconclusive = small, poorly fitted or top-dose-only effect; inactive = no such curve, though single readings can be large or run the other way. This is a selection; strong and weak results do not stand in their true shares.

Test: qHTS for Inducers of the Endoplasmic Reticulum Stress Response (ERSR) in Human Glioma: qHTS; also: nearly all actives have a fitted effect of over 35% in size; as to activation: % of control where 0% means no effect
Conditions: U87-MG GRP78 promoter luciferase reporter, 16 h; activation: stronger effect = higher value
In short: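 ERSR induction read as luciferase luminescence (Bright-Glo, 10 min at room temperature) in stably transfected human U87-MG glioma cells exposed to compounds for 16 h, using GRP78 as sensor.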
Potency is read from the fitted curve at half-maximal effect.

SMILES	activation	Potency
CCOC(=O)CNC(=O)CSc1ncnc2c1cnn2-c1ccccc1	inactive: -18.1%	–
CN1CCN2c3ccccc3Cc3ccccc3[C@@H]2C1	inactive: 1.04% and inactive: -7.15%	–
N#CC(=Cc1ccc(O)c(O)c1)C(=O)NCc1ccccc1	inactive: 8.24%	–
CN(C)CCC(=O)c1ccc2c(c1)OCO2	inactive: -15.4%	–
O=C(Nc1ccc(F)cc1)c1nn(-c2ccccc2)c(=O)cc1Cl	inactive: -16.6%	–
COc1ccc(C(=O)Nc2nc3ccccc3[nH]2)cc1	inactive: -14%	–
Cc1cc(C)c2c(N)c(C(=O)Nc3nccs3)sc2n1	inactive: -14%	–
CCC(=O)Nc1ccc(C(=O)Cn2ncc(Cl)c(Cl)c2=O)cc1	inactive: -15.8%	–
O=C(O)c1cccc(C(=O)Nc2cccc(NC(=O)C3CCCO3)c2)c1 (configuration not stated)	inactive: -13.8%	–
CCCCC/C=C\CC(O)/C=C/c1cccc(CC(O)CCCCO)n1 (configuration not stated)	inactive: -1.91%	–
CCOc1ccc(-c2cc(CCCC(=O)Nc3cc(OC)ccc3OC)no2)cc1	inactive: -13.1%	–
CCOC(=O)CNC(=O)CSc1nnc(-c2cccc(C)c2)n1-c1ccc(OC)cc1	inactive: -16.7%	–
CC(C)(C)OC(=O)C[C@@H]1C/C=C\C[C@@H](CC(=O)N[C@H](CO)Cc2ccccc2)C(=O)NC[C@H](c2ccccc2)OC1=O	inactive: -2.47%	–
C=C1C(=O)[C@]23[C@H](O)[C@H]1CC[C@H]2[C@@]12COC3(O)[C@H](O)[C@@H]1C(C)(C)CC[C@@H]2O	inactive: -12.1%	–
Oc1cc2c(c(Cl)c1O)CCNC[C@H]2c1ccccc1	inactive: -0.537%	–
CCCCN1CCC[C@H]1CNC(=O)c1cc(C#N)c2ccccc2c1OC	inactive: -8.18%	–
CC(C)(C)C(=O)Nc1ccc(NC(=O)c2ccco2)nc1	inactive: -18.9%	–
COC(=O)C(C)Oc1cc(OC(C)C(=O)OC)c2c(C)c(Cl)c(=O)oc2c1 (configuration not stated)	–	active: 39.8 µM
COc1ccc(C(=O)Nn2c(SCC(=O)NCc3ccco3)nc3ccccc3c2=O)cc1	inactive: -16.7%	–
CCn1nnnc1SCC(=O)c1ccc(C)cc1C	inactive: -10.4%	–
CCCCS(=O)(=O)/C=C\C=C/S(=O)(=O)CCCC	inactive: -15.2%	–

SMILES	activation	Potency
CCOC(=O)C1CCN(C(=O)Cn2ncc3c4ccccc4n(Cc4ccc(F)cc4)c3c2=O)CC1	–	active: 39.8 µM
O=C(CCCN1C(=O)/C(=C/c2ccccc2Cl)SC1=S)NNC(=O)c1cccnc1	inactive: -14.8%	–
CC(C)c1nnc(NC(=O)c2nc(S(=O)(=O)Cc3ccc(F)cc3)ncc2Cl)s1	inactive: -19.3%	–
O=c1ccc2ccc(O)c(O)c2o1	–	active: 41.4 µM
O=C(CCc1ccc(O)c(O)c1)N/N=C/c1ccc2c(c1)OCO2	–	active: 22.4 µM
COc1ccc(C(=O)Nc2nnc(SCC(=O)NC3CC3)s2)cc1	inactive: -14.4%	–
O=C(/C=C/c1ccc(O)c(O)c1)O[C@@H]1C[C@@](O)(C(=O)O)C[C@H](O)[C@@H]1O	inactive: -1.19%	–
CC(=O)N[C@@H](CC(=O)O)C(=O)O	inactive: -1.99% and inactive: 2.2%	–
C=C1C(=O)O[C@@H]2[C@H]3O[C@]3(C)CC/C=C(\C)CC[C@@H]12	inactive: -11.9% and inactive: -7.86%	–
Cc1ccccc1N=CC1=C(O)c2ccccc2C1=O	inactive: -15.6%	–
COC(=O)CSc1nc(-c2ccc(F)cc2)cc(C(F)(F)F)n1	inactive: -2.62%	–
CC(=O)OCC1OC(C#Cc2ccccc2)C=CC1OC(C)=O (configuration not stated)	inactive: 2.43%	–
O=C(CCCN1C(=O)/C(=C/c2ccccc2Cl)SC1=S)NNC(=O)c1ccc(Cl)cc1Cl	inactive: -18.2%	–
CC[C@H](C(=O)[C@H](C)[C@H](O)[C@H](C)CCc1ccc(C)c(O)c1C(=O)O)[C@H]1O[C@](CC)([C@@H]2CC[C@@](O)(CC)[C@H](C)O2)C[C@H]1C	inactive: 3.75%	–
O=c1c2ccccc2nc(/C=C/c2cc(Br)ccc2O)n1CCCO	inactive: -14.4%	–
CC(C)(C)C(=O)NC(=S)NNC(=O)C(c1ccccc1)c1ccccc1	–	active: 22.4 µM
C[C@@H]1CN([C@@H](C)CO)S(=O)(=O)c2ccc(Br)cc2O[C@H]1CN(C)C(=O)c1ccccc1	inactive: -2.82%	–
CC(C)(C)OC(=O)C[C@@H]1C/C=C\C[C@@H](CC(=O)N[C@@H](CO)Cc2ccccc2)C(=O)NC[C@@H](c2ccccc2)OC1=O	inactive: -2.63%	–
CCOc1ccc(OCc2ccc(C(=O)OCc3ccccn3)o2)cc1	inactive: -14.3%	–
CCNC(=O)NC(=O)COC(=O)c1ccccc1SCC(=O)NC(=O)NCC	inactive: -11.6%	–
CCC(C)(C)c1ccc(Oc2ccc(NC(=O)COC(=O)C3=COCCO3)cc2)cc1	inactive: -15.8%	–

SMILES	activation	Potency
COC(=O)NC(=C(Cl)Cl)S(=O)(=O)c1ccccc1	inactive: -15.4%	–
CCc1nn2cc(-c3ccccc3)nc2s1	inactive: -14.9%	–
Cc1cc(NCCCCCCCNc2cc(C)nc3cc([N+](=O)[O-])ccc23)c2ccc([N+](=O)[O-])cc2n1	inactive: -14.2%	–
CCCCCCCCCCCCCCCCCC(=O)OC(CC(=O)O)C[N+](C)(C)C (configuration not stated)	inactive: -13.5%	–
O=C(N/C=N/OCc1ccc(Cl)cc1Cl)NOCc1ncc(C(F)(F)F)cc1Cl	inactive: -18.6%	–
Cc1ccc(C(C)C)c2c1C(c1ccc3c(c1)OCO3)CC(=O)O2 (configuration not stated)	inactive: -0.85%	–
COc1ccc(Br)cc1C(C[N+](=O)[O-])c1c(N)n(C)c(=O)n(C)c1=O (configuration not stated)	inactive: -15.9%	–
O=C1C=CC2(C=C1)O[C@H](Cc1ccccc1)[C@@H](Cc1ccccc1)O2	inactive: -14.1%	–
CC(=O)N(C)c1ccc(N=Nc2ccc3ncccc3c2)cc1	inactive: -12.1%	–
COc1ccc(-c2cc(=O)c3ccc(O)cc3o2)cc1	inactive: -5.89% and inactive: -4.47%	–
C[C@@H](NC(=O)/C(C#N)=C/c1ccc(O)c(O)c1)c1ccccc1	inactive: 2.12% [middle of 4 runs]	–
CCCn1cnc2cc(NC(=O)c3ccco3)ccc21	inactive: -10.8%	–
C=CC[C@@H](CC(=O)OC(C)(C)C)C(=O)OC[C@H]1CCCN1C(=O)[C@@H](CC=C)CC(=O)NCCO	inactive: -3.67%	–
O=[N+]([O-])c1cc(-c2ccc(/C=N/c3nc4ccccn4c3-c3ccco3)o2)ccc1Cl	inactive: -16.7%	–
O=C(Nc1ccc(Cl)cc1)Nc1ccccc1C(=O)O	inactive: -16.1%	–
O=C(COc1ccc(Cl)cc1Cl)Nc1ccccn1	inactive: -14.4%	–
CC(C)(C)c1ccc([C@@H](O)CCCN2CCC(C(O)(c3ccccc3)c3ccccc3)CC2)cc1	inactive: -4.35%	–
CC(=O)c1c(C)[nH]c(C(=O)OCCOc2ccccc2)c1C	inactive: -14.6%	–
Cc1ccc(NC(=O)CCOc2ccccc2)cc1	inactive: -0.619%	–
Cc1ccc(C(=O)N/N=C/c2ccc([N+](=O)[O-])s2)cc1	inactive: -18.2%	–
CC(=O)NC(CC(=O)O)C(=O)O (configuration not stated)	inactive: 1.67%	–

SMILES	activation	Potency
Cn1cnc([N+](=O)[O-])c1S(=O)(=O)c1ccc(Cl)cc1	inactive: -16.3%	–
Cc1ccc(CS(=O)(=O)c2ncc(Cl)c(C(=O)Nc3nnc(C(C)C)s3)n2)cc1	inactive: -10.7% and inactive: -19.1%	–
Cn1cc(C=C2C(=O)Nc3cccnc32)c2ccccc21	inactive: -1.05%	–
O=C(O)CCCCC1CCSS1 (configuration not stated)	inactive: -2.14% and inactive: -3.87% and inactive: -1.96%	–
CCCCC/C=C\C[C@H](O)/C=C/c1cccc(C[C@H](O)CCCCO)n1	inactive: 4.18%	–
O=C(O)c1cc(O)ccc1N=Nc1ccccc1	–	active: 28.2 µM
O=C(NCc1ccccc1Cl)C1CCCN(S(=O)(=O)c2cccc3nsnc23)C1 (configuration not stated)	inactive: -3.26%	–
O=S(=O)(c1ccc(Cl)cc1)c1snnc1-c1ccccc1	inactive: -17.1%	–
O=c1cc(-c2ccccc2Cl)oc2c(NS(=O)(=O)c3cc(Cl)cc(Cl)c3O)ccc(O)c12	inactive: -2.36%	–
CC[C@@H](C)[C@H]1O[C@]2(CC[C@@H]1C)C[C@@H]1C[C@H](C/C=C(/C)[C@H](O[C@@H]3C[C@H](OC)[C@H](O[C@@H]4C[C@H](OC)[C@@H](O)[C@H](C)O4)[C@H](C)O3)[C@@H](C)/C=C\C=C3CO[C@@H]4[C@H](O)C(C)=C[C@@H](C(=O)O1)[C@]34O)O2 (tested in a mixture with another compound)	inactive: -6.52%	–
COC(=O)c1[nH]c2ccc(Br)cc2c1NC(=O)CN1CCN(C2CCCCC2)CC1	inactive: -17.5%	–
COc1cccc(N(C(=O)c2ccco2)C(C(=O)NC2CCCC2)c2ccc(N(C)C)cc2)c1 (configuration not stated)	inactive: -17.8%	–
CCN(CC)CCNC(=O)COc1ccc(OC)cc1	inactive: -2.25% and inactive: -4.13% and inactive: -3.87%	–
COCCCn1c(-c2ccccc2Cl)n[nH]c1=S	inactive: -18.6%	–
CCOc1ccc(N2C(=O)CC(N)C2=O)cc1 (configuration not stated)	inactive: -16.7%	–
CCN(CC)c1ccc2cc(NC(=O)CCC(=O)O)c(=O)oc2c1	inactive: -13.6%	–
COC(=O)c1ccccc1CCC(C)=O	inactive: -18.2%	–
CC(=O)N(Cc1ccc(F)cc1)C1=C(NCCc2ccccc2)C(=O)c2ccccc2C1=O	inactive: -19.3%	–
COc1cc(/C=C/C(=O)CC(=O)/C=C/c2ccc(O)c(OC)c2)ccc1O	inactive: -10% [middle of 5 runs]	–
